Source: a collection of fitness landscapes (doi:10.1038/s41467-024-54723-y)
Whole data set: some 18,000 sequences, median “TetR repression strength (sort-seq, GFP reporter)” near 0.23, cut for the highest 2% near 0.68. This is one part of the list.

These sequences were tested against TetR (class B, Tn10) (UniProt P04483) (assay: TetR repression strength (sort-seq, GFP reporter) (relative to tetO2 = 1); higher = stronger repression). Settings: E. coli.
In short: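 Repression strength is the top bin index plus one minus the read-weighted mean bin, relative to the unaltered operator's value. A low-copy library in E. coli SIG10-MAX randomized eight operator positions between a constitutive promoter and sfGFP, with TetR expressed constitutively; cells grew 5 h at 37 °C in LB with 50 µg/mL chloramphenicol and 10^6 were FACS-sorted into 13 bins that were each Illumina-sequenced. Three independent transformations were averaged, keeping only members with ≥30 reads in all replicates and CV ≤0.5.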

UniProt P04483, sequence (P04483 whole entry): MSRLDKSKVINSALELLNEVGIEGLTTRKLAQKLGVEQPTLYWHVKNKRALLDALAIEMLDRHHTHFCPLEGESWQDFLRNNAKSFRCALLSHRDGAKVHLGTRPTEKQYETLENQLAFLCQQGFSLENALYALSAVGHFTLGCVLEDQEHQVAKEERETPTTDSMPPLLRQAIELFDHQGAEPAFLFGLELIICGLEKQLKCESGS

Row | Sequence | TetR repression strength
1 | TCCCGAGTAGTTATCGAGA | 0.34
2 | TCCCGAGCAGTGAGTGAGA | 0.507
3 | TCCCCAACAGTGGCCGAGA | 0.104
4 | TCCCGTTAAGTGGTTGAGA | 0.161
5 | TCCCTGCTAGTTGCCGAGA | 0.167
6 | TCCCACCGAGTGGCGGAGA | 0.335
7 | TCCCTGCTAGTGGGCGAGA | 0.115
8 | TCCCCCTTAGTTGGAGAGA | 0.316
9 | TCCCCGTAAGTAACAGAGA | 0.254
10 | TCCCGATGAGTCGTTGAGA | 0.249
11 | TCCCGTGTAGTGACAGAGA | 0.183
12 | TCCCTGGTAGTCAGAGAGA | 0.184
13 | TCCCCTTAAGTATGCGAGA | 0.273
14 | TCCCGGAGAGTACAGGAGA | 0.218
15 | TCCCCGGCAGTCGCGGAGA | 0.261
16 | TCCCGTCTAGTGATGGAGA | 0.197
17 | TCCCACTGAGTGTTAGAGA | 0.242
18 | TCCCCAATAGTTTCGGAGA | 0.415
19 | TCCCGTAGAGTGCACGAGA | 0.221
20 | TCCCGAGTAGTGCAGGAGA | 0.301
21 | TCCCGATGAGTAGTGGAGA | 0.166
22 | TCCCTAACAGTTCCGGAGA | 0.216
23 | TCCCCAAGAGTCACGGAGA | 0.102
24 | TCCCGCCCAGTGGGGGAGA | 0.291
25 | TCCCCGCCAGTAGTGGAGA | 0.291
26 | TCCCCCTGAGTTATGGAGA | 0.328

Row | Sequence | TetR repression strength
27 | TCCCAAAAAGTGGCCGAGA | 0.215
28 | TCCCGATAAGTCTAGGAGA | 0.352
29 | TCCCATGAAGTTCTAGAGA | 0.431
30 | TCCCTGATAGTTCGGGAGA | 0.29
31 | TCCCAATAAGTAGGGGAGA | 0.508
32 | TCCCTTTAAGTTGCGGAGA | 0.245
33 | TCCCCGGGAGTGGCCGAGA | 0.135
34 | TCCCCGGGAGTGTGGGAGA | 0.207
35 | TCCCGGCAAGTGCGCGAGA | 0.0475
36 | TCCCGGGGAGTGGTAGAGA | 0.0745
37 | TCCCGGAAAGTAGGGGAGA | 0.188
38 | TCCCAATAAGTGGGAGAGA | 0.323
39 | TCCCTGATAGTTGAGGAGA | 0.211
40 | TCCCGTGGAGTGCGAGAGA | 0.188
41 | TCCCTGGGAGTGCTTGAGA | 0.392
42 | TCCCGTGTAGTATCGGAGA | 0.166
43 | TCCCAGGGAGTAAAGGAGA | 0.188
44 | TCCCCGTGAGTTGGAGAGA | 0.319
45 | TCCCGTGCAGTCGATGAGA | 0.439
46 | TCCCACGCAGTTGGGGAGA | 0.0918
47 | TCCCAAATAGTCGGTGAGA | 0.33
48 | TCCCTAGGAGTAACGGAGA | 0.183
49 | TCCCGTGAAGTCTTGGAGA | 0.128
50 | TCCCTAAAAGTGGCGGAGA | 0.0467
51 | TCCCACGGAGTTCATGAGA | 0.197
52 | TCCCCCTGAGTATCAGAGA | 0.276

Row | Sequence | TetR repression strength
53 | TCCCAATAAGTTTAAGAGA | 0.228
54 | TCCCTGGCAGTCGAAGAGA | 0.189
55 | TCCCGGATAGTTGAGGAGA | 0.175
56 | TCCCGTGAAGTGGGAGAGA | 0.155
57 | TCCCAAGCAGTTTTCGAGA | 0.255
58 | TCCCAGACAGTGTACGAGA | 0.52
59 | TCCCATCGAGTATGTGAGA | 0.112
60 | TCCCTACGAGTGGAGGAGA | 0.304
61 | TCCCAATAAGTAGTGGAGA | 0.0218
62 | TCCCGGCTAGTAGTGGAGA | 0.191
63 | TCCCACGGAGTGAGGGAGA | 0.186
64 | TCCCTGGCAGTGGTTGAGA | 0.173
65 | TCCCATCTAGTGTGGGAGA | 1.06
66 | TCCCTCGGAGTCTGAGAGA | 1.02
67 | TCCCTATTAGTCGAAGAGA | 0.089
68 | TCCCTAGGAGTAAATGAGA | 0.132
69 | TCCCGGAAAGTCCGCGAGA | 0.195
70 | TCCCCTCCAGTGTAGGAGA | 0.164
71 | TCCCGGGTAGTGAGGGAGA | 0.174
72 | TCCCTAGGAGTGTACGAGA | 0.238
73 | TCCCTGGTAGTGTTGGAGA | 0.225
74 | TCCCATTCAGTTGGCGAGA | 0.146
75 | TCCCGCGCAGTTGATGAGA | 0.117
76 | TCCCAGATAGTAAGTGAGA | 0.219
77 | TCCCCTTTAGTCGGTGAGA | 0.185
78 | TCCCGGGCAGTGATCGAGA | 0.561

Row | Sequence | TetR repression strength
79 | TCCCCGCTAGTAGGAGAGA | 0.13
80 | TCCCTTGTAGTGTAGGAGA | 0.174
81 | TCCCTTGGAGTGATGGAGA | 0.187
82 | TCCCAGTTAGTCAGTGAGA | 0.209
83 | TCCCCTCCAGTGGATGAGA | 0.0931
84 | TCCCACGCAGTGAGGGAGA | 0.0594
85 | TCCCGGTCAGTGGACGAGA | 0.132
86 | TCCCTATCAGTAGACGAGA | 0.525
87 | TCCCGTTAAGTGGCAGAGA | 0.292
88 | TCCCTTCCAGTTATTGAGA | 0.419
89 | TCCCGAGTAGTGGGAGAGA | 0.0817
90 | TCCCTCCAAGTCCAAGAGA | 0.622
91 | TCCCAATCAGTTTGGGAGA | 0.168
92 | TCCCGGAGAGTGGATGAGA | 0.0613
93 | TCCCGAGCAGTGTTTGAGA | 0.309
94 | TCCCAGTGAGTGTGGGAGA | 0.257
95 | TCCCCGGCAGTGCTGGAGA | 0.174
96 | TCCCAAAAAGTTGGGGAGA | 0.266
97 | TCCCGCAAAGTTGCTGAGA | 0.183
98 | TCCCTAACAGTGGCTGAGA | 0.305
99 | TCCCCGCAAGTAATGGAGA | 0.25
100 | TCCCCCCGAGTATCCGAGA | 0.275
101 | TCCCTCGTAGTGAGGGAGA | 0.283
102 | TCCCTCATAGTGCAGGAGA | 0.0808
